No constants are given. Whether binding was seen depends on the method and setting. In cells and extracts the contact can be indirect. Some binding calls cover weakened binding; strength is not graded here. Where a sequence is shown, tags or fusion partners need not be part of it. One block for each molecule: values may come before it.
Key:
[1] = biological target: T1, GST-Cti6 (full-length) (S. cerevisiae) (UniProt Q08923); experiment: pull-down; GST fusions of repressors (full-length or length variants) immobilised on GSH sepharose, incubated with bacterial total protein extracts containing HA-tagged Sin3, Cyc8 or Tup1 (or Tup1 length variants); elution with free GSH, anti-HA blot (Figs. 1, 3, 4, 5); only the target purified
T1 sequence: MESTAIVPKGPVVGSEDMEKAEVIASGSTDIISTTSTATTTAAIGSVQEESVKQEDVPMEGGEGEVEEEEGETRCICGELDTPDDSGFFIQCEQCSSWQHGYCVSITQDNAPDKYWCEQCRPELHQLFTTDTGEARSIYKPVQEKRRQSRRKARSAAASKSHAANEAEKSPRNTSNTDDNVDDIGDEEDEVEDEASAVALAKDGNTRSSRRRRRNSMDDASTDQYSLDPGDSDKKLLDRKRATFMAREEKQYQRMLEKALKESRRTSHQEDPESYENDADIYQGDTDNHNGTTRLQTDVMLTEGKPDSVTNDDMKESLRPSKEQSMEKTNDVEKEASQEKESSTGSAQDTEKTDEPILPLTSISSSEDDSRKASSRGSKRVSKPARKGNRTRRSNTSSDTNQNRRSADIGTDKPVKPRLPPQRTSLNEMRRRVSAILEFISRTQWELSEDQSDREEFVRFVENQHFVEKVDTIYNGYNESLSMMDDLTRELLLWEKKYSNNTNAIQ

By UniProt entry, the sequences of proteins in these tests, tags left out.
UniProt P16649: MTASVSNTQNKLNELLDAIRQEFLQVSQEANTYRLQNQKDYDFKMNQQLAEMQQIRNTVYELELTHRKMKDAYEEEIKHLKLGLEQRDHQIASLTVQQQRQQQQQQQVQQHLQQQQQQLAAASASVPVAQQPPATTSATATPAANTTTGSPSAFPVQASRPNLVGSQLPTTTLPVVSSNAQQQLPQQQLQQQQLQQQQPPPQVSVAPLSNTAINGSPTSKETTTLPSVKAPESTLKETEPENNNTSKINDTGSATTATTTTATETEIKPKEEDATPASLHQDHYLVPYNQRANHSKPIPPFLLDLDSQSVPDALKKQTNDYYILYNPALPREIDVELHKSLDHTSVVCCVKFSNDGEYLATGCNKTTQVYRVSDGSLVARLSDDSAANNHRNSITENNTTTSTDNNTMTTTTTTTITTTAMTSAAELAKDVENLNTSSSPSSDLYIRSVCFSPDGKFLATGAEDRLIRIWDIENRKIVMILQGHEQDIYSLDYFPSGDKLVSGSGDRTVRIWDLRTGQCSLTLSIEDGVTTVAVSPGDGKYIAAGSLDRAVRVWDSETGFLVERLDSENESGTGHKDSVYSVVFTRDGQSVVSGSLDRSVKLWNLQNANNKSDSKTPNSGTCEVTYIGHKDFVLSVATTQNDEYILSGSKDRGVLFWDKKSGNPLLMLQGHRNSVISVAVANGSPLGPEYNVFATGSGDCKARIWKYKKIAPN

[2] = biological target: T2, GST-Ume6 aa 508-594 (S. cerevisiae); experiment: as above
T2 sequence: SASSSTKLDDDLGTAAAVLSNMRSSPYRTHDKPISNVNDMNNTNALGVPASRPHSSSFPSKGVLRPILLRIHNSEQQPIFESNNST

[3] = biological target: T3, GST-Mot3 (full-length) (S. cerevisiae) (UniProt P54785); experiment: as above
T3 sequence: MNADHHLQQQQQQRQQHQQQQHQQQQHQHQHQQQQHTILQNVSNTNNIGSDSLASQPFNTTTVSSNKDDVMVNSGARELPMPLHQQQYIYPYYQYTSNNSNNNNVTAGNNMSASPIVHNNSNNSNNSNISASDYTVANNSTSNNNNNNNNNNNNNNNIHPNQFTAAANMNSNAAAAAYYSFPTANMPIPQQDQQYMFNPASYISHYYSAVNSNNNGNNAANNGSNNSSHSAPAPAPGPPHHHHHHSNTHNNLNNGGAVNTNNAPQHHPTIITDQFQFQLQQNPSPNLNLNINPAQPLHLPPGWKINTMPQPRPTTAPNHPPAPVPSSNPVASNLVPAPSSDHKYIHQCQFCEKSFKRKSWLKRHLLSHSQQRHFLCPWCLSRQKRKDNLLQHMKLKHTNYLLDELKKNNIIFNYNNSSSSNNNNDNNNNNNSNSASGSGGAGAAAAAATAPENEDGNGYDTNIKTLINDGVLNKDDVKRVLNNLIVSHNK

[4] = biological target: T4, GST-Rox1 length variant aa 124-200 (S. cerevisiae); experiment: pull-down; GST fusions of repressor length variants used for binding studies with epitope-tagged corepressors (Supporting Online Fig. 1; its legend was not shown, source of the extracts and Sin3 construct not stated); only the target purified
T4 sequence: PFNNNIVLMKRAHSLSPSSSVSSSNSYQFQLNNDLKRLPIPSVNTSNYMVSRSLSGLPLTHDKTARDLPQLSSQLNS

[5] = biological target: T5, GST-Xbp1 (full-length) (S. cerevisiae) (UniProt P40489); experiment: pull-down; GST fusions of full-length repressors immobilised on GSH sepharose, incubated with protein extracts from yeast transformants containing epitope-tagged Sin3 length variants; anti-HA blot (Fig. 2); only the target purified
T5 sequence: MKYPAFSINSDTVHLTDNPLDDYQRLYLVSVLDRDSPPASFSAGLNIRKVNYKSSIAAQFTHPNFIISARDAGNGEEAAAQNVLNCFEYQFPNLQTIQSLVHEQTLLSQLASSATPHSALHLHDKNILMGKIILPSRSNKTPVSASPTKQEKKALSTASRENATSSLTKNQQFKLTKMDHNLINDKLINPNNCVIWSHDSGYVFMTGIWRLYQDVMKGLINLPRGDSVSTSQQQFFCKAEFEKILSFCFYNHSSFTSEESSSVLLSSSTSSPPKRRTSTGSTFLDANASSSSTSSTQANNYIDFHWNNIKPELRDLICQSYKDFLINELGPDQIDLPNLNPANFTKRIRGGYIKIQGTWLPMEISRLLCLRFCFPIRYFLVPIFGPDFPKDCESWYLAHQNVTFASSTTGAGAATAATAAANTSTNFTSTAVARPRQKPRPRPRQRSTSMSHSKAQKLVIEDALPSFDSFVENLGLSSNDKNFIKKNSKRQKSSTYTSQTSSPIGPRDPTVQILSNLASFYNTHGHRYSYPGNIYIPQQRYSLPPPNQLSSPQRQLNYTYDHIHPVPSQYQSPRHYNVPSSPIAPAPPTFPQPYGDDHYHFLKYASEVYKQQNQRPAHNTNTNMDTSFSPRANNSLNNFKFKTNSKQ

[6] = biological target: T6, GST-Whi5 (full-length) (S. cerevisiae) (UniProt Q12416); experiment: as above
T6 sequence: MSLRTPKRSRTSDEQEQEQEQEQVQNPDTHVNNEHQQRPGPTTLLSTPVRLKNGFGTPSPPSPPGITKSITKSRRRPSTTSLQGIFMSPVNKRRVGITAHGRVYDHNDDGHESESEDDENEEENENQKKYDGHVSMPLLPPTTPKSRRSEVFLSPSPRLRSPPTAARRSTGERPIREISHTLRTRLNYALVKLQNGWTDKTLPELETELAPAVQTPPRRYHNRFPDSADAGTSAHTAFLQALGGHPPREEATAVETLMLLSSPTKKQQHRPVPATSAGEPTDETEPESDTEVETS

Molecule: HA3-Tup1 (full-length; pFK76) (from UniProt P16649 1-713)
binding [4]: binds | binding [1]: binds | binding [2]: binds | binding [3]: binds

B2: HA3-Cyc8 (aa 1-398 with 10 TPR motifs; pFK77) (domain or fragment, UniProt P14922 1-398)
chain: MNPGGEQTIMEQPAQQQQQQQQQQQQQQQQAAVPQQPLDPLTQSTAETWLSIASLAETLGDGDRAAMAYDATLQFNPSSAKALTSLAHLYRSRDMFQRAAELYERALLVNPELSDVWATLGHCYLMLDDLQRAYNAYQQALYHLSNPNVPKLWHGIGILYDRYGSLDYAEEAFAKVLELDPHFEKANEIYFRLGIIYKHQGKWSQALECFRYILPQPPAPLQEWDIWFQLGSVLESMGEWQGAKEAYEHVLAQNQHHAKVLQQLGCLYGMSNVQFYDPQKALDYLLKSLEADPSDATTWYHLGRVHMIRTDYTAAYDAFQQAVNRDSRNPIFWCSIGVLYYQISQYRDALDAYTRAIRLNPYISEVWYDLGTLYETCNNQLSDALDAYKQAARLDVNN
binding [4]: binds | binding [1]: binds | binding [2]: binds | binding [3]: binds

Further lines, results first:

binding [1]: binds | binding [2]: binds | binding [3]: binds
Molecule: HA3-Sin3 (full-length, aa 1-1536; pSW11) (from UniProt P22579 1-1536)

binding [5]: binds | binding [6]: binds
Molecule: epitope-tagged Sin3 length variant 301-600 (PAH2; pYJ91) (from UniProt P22579 301-600) (domain or fragment)

binding [5]: binds | binding [6]: binds
B1: epitope-tagged Sin3 length variant 1-300 (PAH1; pCW83) (domain or fragment, UniProt P22579 1-300)
chain: MSQVWHNSNSQSNDVATSNDATGSNERNEKEPSLQGNKPGFVQQQQRITLPSLSALSTKEEDRRDSNGQQALTSHAAHILGYPPPHSNAMPSIATDSALKQPHEYHPRPKSSSSSPSINASLMNAGPAPLPTVGAASFSLSRFDNPLPIKAPVHTEEPKSYNGLQEEEKATQRPQDCKEVPAGVQPADAPDPSSNHADANDDNNNNENSHDEDADYRPLNVKDALSYLEQVKFQFSSRPDIYNLFLDIMKDFKSQAIDTPGVIERVSTLFRGYPILIQGFNTFLPQGYRIECSSNPDDPI

— PMC10163088
